Laboratory results published in the supplement of paper PMC10126150.
Sequences with one replicate were seen in a single cluster, so their values are uncertain.

System: ATP
Assay: switch fluorescence ratio, 500 uM ATP over buffer (Cy3 cluster intensity, sum of 5 cycles each) (fold (ratio)); higher = stronger signal-on switching upon ATP binding; sequences stand for … in TCGTCGGCAGCGTCAGATGTGTATAAGAGACAGTTTTTTTTTTTTTTTTTTTTTTTTT…TC
Settings: aptamer strand: ATP DNA aptamer (quencher-CACCTGGGGGAGTATTGCGGAGGAAGG + anchor), 100 nM annealed; ATP concentration: 500 uM; one replicate
Procedure, shortened: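 Per cluster, summed Cy3 intensity from the target cycles was divided by that from the buffer cycles to give the fluorescence ratio, then averaged per switch-domain sequence. Clusters outside 100-1000 RFU were excluded. The Cy3-labelled switching-strand clusters, on a modified Illumina MiSeq flow-cell, were annealed to 100 nM quencher-labelled ATP aptamer and imaged in selection buffer, then after 15 min with 500 uM ATP at 22 °C, for five cycles with NaOH stripping and re-annealing between them.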
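Also: ATP exposure 15 min at 22 °C before imaging.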

Sequence	switch fluorescence ratio
CGTTTTCACC	1.03
CGTTTTGT	1.01
CTAAAAAGGG	0.995
CTAAACACAC	1.23
CTAAACTATG	0.966
CTAAAGAAAT	1.06
CTAAAGCTTG	0.965
CTAACGTTTC	1.14
CTAACGTTTT	0.963
CTAACTAACT	1.11
CTAACTTATC	1
CTAAGAA	0.969
CTAAGCAAAA	1.01
CTAAGGAAGT	1.02
CTAAGGACG	1.04
CTAAGGATCT	1
CTAAGTTCTC	1.01
CTAATAAGGC	1.05
CTAATAGTTC	0.949
CTAATCGAGT	0.956
CTAATTAAGA	1.02
CTAATTAGGT	0.99
CTACAACGAC	1.2
CTACAAGCGT	0.963
CTACACTCTG	1.03
CTACACTTGC	1.19

Sequence	switch fluorescence ratio
CTACCATTTA	1.01
CTACCCTGGA	1.05
CTACCCTTTT	1.01
CTACCTGCGC	2.1
CTACCTTTTG	1
CTACGAGTTC	1.09
CTACGCTGCG	1.08
CTACGGGGAA	1.1
CTACGTAGCC	1.2
CTACGTGCTC	1.42
CTACTACTTG	1.04
CTACTCAGA	1.04
CTACTCTGGG	1.02
CTACTCTTTG	1.03
CTACTGATGA	1.02
CTACTTTGAA	0.953
CTAGAAATGG	1.01
CTAGAACAGA	0.974
CTAGAACTTT	1.01
CTAGAATGTT	0.975
CTAGACACTG	1.06
CTAGAGCGTT	1.03
CTAGAGGGAA	0.979
CTAGAGTATA	1.01
CTAGATGTGA	1.06
CTAGATGTGT	1.04

Sequence	switch fluorescence ratio
CTAGATTT	0.976
CTAGCCCAAA	0.989
CTAGCGCCAT	1.12
CTAGCGCTCA	0.992
CTAGCGGGCG	1.01
CTAGCTAGAG	1.05
CTAGCTATGC	1.29
CTAGCTGGAA	1.01
CTAGGATAGA	0.993
CTAGGATGGG	0.988
CTAGGCAGGT	1.43
CTAGGCGCGA	1.05
CTAGGGACGG	1.01
CTAGGGATTG	0.985
CTAGGTTTCC	1.02
CTAGTAGGTT	0.957
CTAGTATTCA	0.995
CTAGTGTTTT	1.04
CTAGTTAATC	1.01
CTAGTTTCCA	0.962
CTATAACGGC	0.959
CTATACTACG	1.08
CTATAGAGGT	0.965
CTATATAATG	0.974
CTATATGCGC	0.969
CTATCAATTT	1.08

Sequence	switch fluorescence ratio
CTATCAGATG	1
CTATCAGTTT	0.982
CTATCCAATA	1.21
CTATCTCAGA	0.999
CTATGACTGG	0.953
CTATGCAAGG	1.49
CTATGCGTAT	0.996
CTATGGCCCC	0.967
CTATGGGGAC	1
CTATGGGTCT	0.972
CTATGTTTTA	0.957
CTATTACAAT	1.01
CTATTACAGC	1.09
CTATTCAATG	1.04
CTATTCTCGA	0.975
CTATTGCGGA	1.01
CTATTGTGCT	0.993
CTATTGTTAC	1.03
CTATTTGTA	0.991
CTATTTTTGG	1.09
CTCAAAGCC	1.06
CTCAAATGCT	1.06
CTCAACGAGT	0.985
CTCAAGAT	1.12
CTCAAGCAGT	2.6
CTCAATCTGC	1.1

Sequence	switch fluorescence ratio
CTCACCGTTA	1.09
CTCACGAAGA	1.05
CTCACGGTAT	1.27
CTCACTTACC	1.29
CTCAGCCCAA	1.35
CTCAGCCGTT	1.07
CTCAGGAGAG	1.04
CTCAGGCCTC	1.02
CTCAGGGGTA	1.12
CTCAGTAAGT	1.08
CTCAGTGATT	1.07
CTCATAAAGA	0.998
CTCATGAGGT	0.976
CTCATTTAAC	1.04
CTCATTTTGG	0.972
CTCCAATCAG	1.15
CTCCACCAGT	5.47
CTCCACCGCT	3.64
CTCCACGCGC	2
CTCCACTATA	3.77
CTCCACTGA	1.18
CTCCCATGCG	1.53
CTCCCCGGCC	1.49
CTCCCTCCTT	1.12
CTCCTAGCAG	2.6
CTCCTCGGGA	1.05

Sequence	switch fluorescence ratio
CTCCTCTCGT	1.21
CTCCTCTTGG	1.24
CTCCTTAGGG	1.1
CTCCTTGAAT	1.05
CTCCTTTTGG	0.984
CTCGAAACG	0.994
CTCGACACTT	1.03
CTCGAGGGAC	1.08
CTCGATAGAC	1.8
CTCGCAGGGA	1.12
CTCGCGATTG	1.98
CTCGGACGA	0.947
CTCGGAGGTG	1.04
CTCGGATGGA	1.04
CTCGGGAGGC	1.06
CTCGGGCATA	1.93
CTCGGGTTTA	0.969
CTCGGTAACT	1.11
CTCGGTGCAA	1.51
CTCGTAGAGC	0.896
CTCGTCATGG	1.01
CTCGTGTACG	0.879
CTCGTTAGTA	1.01
CTCGTTTCTG	1.02
CTCTAGCTAT	2.41
CTCTAGGTAC	3.27

Sequence	switch fluorescence ratio
CTCTAGTCAT	1.06
CTCTATTGGC	1.05
CTCTATTTCA	1.03
CTCTCAAAAG	1.09
CTCTCACGCC	1.35
CTCTCTACAT	1.03
CTCTCTTAAT	1.03
CTCTGAAAAG	1
CTCTGCAAGT	7.48
CTCTGCATCT	3.67
CTCTGCCCGC	2.01
CTCTGCTAAT	4.89
CTCTGGCGGG	0.984
CTCTGGTTTG	0.949
CTCTGTAT	1.09
CTCTGTTGAG	0.983
CTCTTAACGG	0.998
CTCTTCGCTT	1.45
CTCTTTCCAA	1.07
CTCTTTTCCC	1.08
CTCTTTTTGG	0.996
CTGAAAGTTG	0.982
CTGAACCGGG	1.04
CTGAAGGCTT	0.966
CTGAATTACT	1.08
CTGACATAAT	1.19

Sequence	switch fluorescence ratio
CTGACCGCTG	1.16
CTGACTGGG	1.06
CTGAGATAG	1.03
CTGAGGCTC	1.11
CTGAGTAGAT	1.06
CTGAGTGGG	0.977
CTGAGTTGGC	0.953
CTGATCACAA	1.46
CTGATCAGGG	0.956
CTGATGAGAC	2.5
CTGATGGGGG	0.99
CTGATGTTAT	0.896
CTGATTATAT	1.01
CTGATTGGGG	0.962
CTGATTGGTT	0.972
CTGCAAATG	1.35
CTGCAACAGC	1.82
CTGCAACATT	1.14
CTGCAACGTA	1.11
